# The source gives no read counts; variants with many changes may rest on few reads.
# B1: LINE1-mini (parent)
# chain: GGCAGAGCUCAACACAGCGUGGCAAAGUGGCUGUGGCUAGACUGCC
# Variants of: B1
# Experiment: self-cleavage, relative activity (ratio to wild type); higher = more cleavage; in vitro, sequencing; the parent is a self-cleaving ribozyme
row,Variant,self-cleavage
1,G1A G5U C8U C10A G21U G29U,0.07
2,A16G A26G U32G G36A A39U C42G,0.04
3,G17C C18U G29A G30U C42A,0.08
4,C8G C10U G21A G36A,2.33
5,G1U C8U A14U G21U G36U,0.06
6,A4C U9C G21A U43C,0.01
7,G27U G29A A39C C42U,0.12
8,C23G G30U G36A,0.1
9,G7C U38C G44A,0.14
10,C10G G29U A41C,0.01
11,C13A G21C G35A A39G C46A,0.1
12,G2A C15A G29A C31A,0.23
13,A4U G5A C23G G33A G40U,0.16
14,A12U A25G A26U G36U,0.01
15,A11U C13G G36A,0.01
16,A4G C15A A16C G33A C45A,0.02
17,A24U G35C A41C,0.03
18,G1A C3A C10A,0.17
19,G7A U9A A11C G30A C31A,0.02
20,G1C G2U U9G C23U,0.02
21,C18G G22C G30A A41G,0.02
22,A24U G27U C37U,0.05
23,G2U A11C U28C U43A,0
24,G5C A16C C18A U28A,0.02

row,Variant,self-cleavage
1,G2U C13U C18G A25U U38C,0.02
2,G1A G2U C8A A26C C37U,0.02
3,G2A A11G A14U G35U U43G,0.02
4,G7C C8A C13A U43A,0.36
5,G1A C8G G19U G44A,0.09
6,U28G G36U U43C,0.02
7,C3A C8A G36A,1.9
8,C3A C18G G33U,0.2
9,A11C C15A G22C A26C A41U,0.01
10,U9G A11U C37G C42A,0
11,G5C U9G C18U,0.03
12,C8U C10A G29U,0.02
13,C3A C37U C45G,0.17
14,G5C A12G G44A,0
15,A4G G22C C42U,0.08
16,C15U A16C G17U,0.03
17,U9A A26U G44A,0.15
18,U20A A25G G27U A39C,0.04
19,G2A U20C C31U G33C G35U,0.18
20,A4U C15U G21U G27A,0.25
21,A12U C37A C45A,0
22,G2A C10A G29U U32A C37U G40U,0.01
23,C13U G22C G44U,0.12
24,U9C A16U A26U U32A,0.02

row,Variant,self-cleavage
1,A14C G17U U20G U34G,0.22
2,G19A A26C G27A,0.3
3,G7U C8U A25C C42G,0.25
4,U20G G27A U28A,0.11
5,C15G A16G G19U A24G,0.15
6,U28C C37U U43G,0.02
7,A6U C10A G27C U32C,0.03
8,C3U C13A U34C G40U,0.08
9,C8U U28C U34A,0.18
10,G1A C8A U28C A41C,0.39
11,G2U C13G G27A C31U,0.03
12,G1U A4C A24U G30U C45G,0.04
13,C3U C15A C18G C46U,0.05
14,U20G G27U C37G A41G,0.01
15,C8U C15U G17C U20A G27A G36C,0.04
16,U9C U34A G36C A39G,0.04
17,A16U G19U U38C,0.08
18,C15U G22U U34C G44A,0.04
19,A4U A11C A12U A14C U38G,0.02
20,A6C U9A G36C,0.02
21,U28C G30A G33A,0.35
22,A24U U32A C45G,0.02
23,G7A U9A U34C,0.14
24,G2C G36C C37U,0

row,Variant,self-cleavage
1,C3A G5C A25G,0.19
2,C8U A25C G40C C42G,0.06
3,C13U U28G C31U G40A,0.03
4,C3U C13A G35U G40A,0.09
5,C13U U38G C45A,0.01
6,G19U A39G G40U,0.03
7,G7U C23A G30C G40A,0.23
8,C3G A11C A14C G30U G35A,0.02
9,G27C U34C C46A,0.19
10,C23G A25C G29C U34C G35U,0.02
11,G7C A12G C23U A24U G29A G36C,0.09
12,A16U C23G G27C,1.07
13,G19U G21U G27A G40U,0.13
14,U9C C13U G22U U38G,0.05
15,A12G U32A C42A,0.15
16,A11U A12C G22A,0.05
17,U9C G21U G29C,0.03
18,G2U A25U G44A,0.04
19,C15G G27A C31U,0.03
20,G5A A6G U20C,0.04
21,A11U A14G U20C C37U,0.01
22,G7U A11U A16U G17C C18G G27U,0
23,A6U C8G C13U C18A,0.22
24,C10A U20C U32G,0.01

row,Variant,self-cleavage
1,C13U C15U C37U G40A A41U,0.09
2,C13A A25G C46G,0.01
3,C31U G36U C42U C46U,0.2
4,G17C G21A C23A,0.8
5,G22A A24U C31G,0.08
6,G1A A14U A16G G27U U32C C37A C45U,0.01
7,A6C A12U C18U C23U C42U,0.09
8,G17A U20C G21C G33A U43A C45G,0.02
9,A12U G30A U38A G44A,0.07
10,C10U U20G G27C,0.09
11,U9A C10U A11U C37U,0.03
12,G2A A14C G30A G40C,0.07
13,C10U A12U U38G A39U,0.05
14,G1A G7A C23A G29A G30C,0.22
15,G2U C15G C18U G22U,0.05
16,G21U G27U G29U,0.54
17,G7C A14U A26U C37U,0.02
18,G5A C8G C45U,0.28
19,G2U A4G G5A G21U,0.06
20,G5U G22U U28A A41G G44A,0.04
21,A16C U20G G35A A41G G44U,0.02
22,G1U C3A G27A U28G C46A,0.22
23,G17C A25G U28G,0.06
24,U9A G27U G44U C45A,0.01

row,Variant,self-cleavage
1,C8A C15U G21U,0.16
2,G5C A11G G17U C46A,0
3,C3U C15G A25U G35U C42U,0.02
4,A6G C13U G19A G35U,0.02
5,G19A U20G C31A,0.12
6,A4C U32A C37G,0.02
7,G2C G19C C31G A39C,0.01
8,G30A A39C G44C,0.21
9,G2C A4C G27U A39U,0.02
10,G30U A41C C42G,0.03
11,C13A G19C U20A U32G,0.01
12,A12G G29U G33U,0.02
13,C8A U9G A41U,0.04
14,G5U C10G U20G G21C G22A U28G C46U,0.02
15,C3U A6C A41C,0.05
16,G2A A12G C45U,0.01
17,C8A A25U U34G,0.12
18,C3A C31A G36C A41G,0.23
19,G5A A6C C8G G19U,0.04
20,G2U U20C U32G A41C C42U,0.08
21,C10A C15A G40C U43A,0
22,A11C C13U G17A G22U G33A U34C C42A C45A,0.01
23,G7C C8U G17A U38C,0.15
24,G1A A4C A14C G33A G35U C46G,0.05

row,Variant,self-cleavage
1,C15A C23G G29A G40U,0.02
2,G2A C13U C15G G21U C46A,0.54
3,G2A C10U C13U U32C G35U C42A,0.06
4,C13A A16C C31A C46A,0.08
5,A4U C18A C31G G44A,0.04
6,A16C G17A U28G G30C U38G,0.01
7,A16G A24U U28A,0.03
8,G5A A39U A41C U43G,0.01
9,C3U G7A A41C C45G,0.21
10,C10U A11U A14C C31U A41C C45G,0.01
11,A16C G33C C42A,0.03
12,G2C C3U G19U G40U G44C,0.09
13,A6U A11U A25U G33A,0.05
14,C15G G17U U43A,0.15
15,G27U G36U A39U,0.02
16,G21A G29A G30A,1.15
17,C3A C15U A26G C31U U34C,0.24
18,A12C A26C C45A,0
19,A4C A6U C10A C23A,0.04
20,A4G C8U C45A,0.22
21,G2C C3A C10A U28G,0.04
22,G27U G30U C46A,1.74
23,G30U G40U C42G,0.02

# — the RNAGym collection of RNA variant scans (doi:10.7554/elife.90254)
